Results published in paper PMC4336329 (PLoS ONE, 2015).
The whole screen tested about 310,000 compounds, of which about 2,200 (0.71%) showed an effect of 50% or more. Effects have a minus sign here. Some of the results follow. *1 amine or outer side, *2 acyl side, *3 side chain or, on linkers, in order; H or OH if unused. Where a SMILES comes first, the peptide text is derived from it. Bridges are numbered along the chain shown (N, C = ends). [ ]: non-standard residue; d: D form. ξ: configuration not given here. hSer(Ph(2-I,4-NO2,6-CO)) = O=C([C@H](CCOc1c(I)cc([N+](=O)[O-])cc1C(=O)[*:3])N[*:1])[*:2]; ξD = NC(CC(=O)O)C(=O)O

target: human ether-à-go-go-related gene (hERG) potassium channel (human, UniProt Q12809); assay: primary screen, population patch clamp on CHO cells stably expressing hERG
Sequence (Q12809 whole entry, looked up): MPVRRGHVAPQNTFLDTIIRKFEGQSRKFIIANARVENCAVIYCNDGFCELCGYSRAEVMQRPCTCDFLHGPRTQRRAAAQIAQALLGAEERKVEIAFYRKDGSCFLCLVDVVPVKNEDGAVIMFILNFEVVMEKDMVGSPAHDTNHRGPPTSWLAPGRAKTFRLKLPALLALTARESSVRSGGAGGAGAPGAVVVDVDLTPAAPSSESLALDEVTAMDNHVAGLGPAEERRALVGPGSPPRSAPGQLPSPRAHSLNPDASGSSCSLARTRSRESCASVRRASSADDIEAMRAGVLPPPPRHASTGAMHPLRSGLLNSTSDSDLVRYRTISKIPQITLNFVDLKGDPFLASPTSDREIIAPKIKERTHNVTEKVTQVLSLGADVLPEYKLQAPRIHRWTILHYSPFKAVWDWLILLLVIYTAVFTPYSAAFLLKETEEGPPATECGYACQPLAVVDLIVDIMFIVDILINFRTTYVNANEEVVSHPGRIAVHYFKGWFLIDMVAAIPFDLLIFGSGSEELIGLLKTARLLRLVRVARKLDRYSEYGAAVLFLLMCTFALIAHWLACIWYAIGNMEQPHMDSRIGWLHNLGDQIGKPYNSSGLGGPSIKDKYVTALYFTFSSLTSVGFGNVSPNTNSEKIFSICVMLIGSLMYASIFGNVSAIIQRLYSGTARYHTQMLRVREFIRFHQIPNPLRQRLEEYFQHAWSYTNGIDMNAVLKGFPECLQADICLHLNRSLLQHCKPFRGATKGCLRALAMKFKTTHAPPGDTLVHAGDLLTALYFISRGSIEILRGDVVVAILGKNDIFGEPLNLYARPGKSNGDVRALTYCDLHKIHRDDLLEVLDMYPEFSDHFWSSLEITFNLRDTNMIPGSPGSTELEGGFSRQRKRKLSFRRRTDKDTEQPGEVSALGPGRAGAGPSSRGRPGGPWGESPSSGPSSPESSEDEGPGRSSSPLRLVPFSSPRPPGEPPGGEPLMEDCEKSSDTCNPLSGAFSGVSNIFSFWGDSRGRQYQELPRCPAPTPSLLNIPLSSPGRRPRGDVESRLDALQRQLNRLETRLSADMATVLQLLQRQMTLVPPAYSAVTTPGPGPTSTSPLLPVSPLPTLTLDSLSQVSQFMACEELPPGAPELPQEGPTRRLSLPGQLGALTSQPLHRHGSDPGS

SMILES	hERG current change (%, negative = inhibition) at 1uM [%]
CC(C(=O)NN)n1nnc(N2CCOCC2)n1 (stereo not drawn)	9.87
CC(=O)Oc1cccc(N2C(=O)C3C4C=CC(C4)C3C2=O)c1 (stereo not drawn)	9.76
Nc1cc(OCC(F)(F)F)cc(OCC(F)(F)F)c1	7.24
O=C(Nc1ccnc(-c2cccnc2)n1)c1ccccc1Cl	4.52
COc1cccc(NC(=O)CCN2C(=O)c3cccc([N+](=O)[O-])c3C2=O)c1	1.59
O=S(=O)(c1ccc(F)cc1)n1ccc2cccnc21	5.64
CC1(C)Cc2nc3sc4c(SCC(=O)NCc5ccccc5)ncnc4c3cc2CO1	1.68
C=CCn1c(SCc2ccc(C#N)cc2)nnc1-c1ccc(C)cc1	-37.5
COC(=O)c1ccc(COC(=O)c2cnccn2)cc1	13
O=C(COC(=O)c1ccc(O)cc1)NC(=O)NCc1ccccc1	10.1
CC(CNC(=O)COc1ccccc1)OC(=O)Nc1cccc(Cl)c1 (stereo not drawn)	1.13
COc1ccccc1CNS(=O)(=O)c1ccc2[nH]cc(C(=O)O)c(=O)c2c1	19.1
Cc1nc2ccccc2n1S(=O)(=O)c1ccc(Br)cc1	6.42
Fc1ccccc1CN1CCCC(NC2CCC2)C1 (stereo not drawn)	12.1
CCc1nnc(NC(=O)c2nc(S(=O)(=O)Cc3ccc(C)cc3)ncc2Cl)s1	14.6
Cc1ccc(C(=O)Nc2cc(S(=O)(=O)N3CCOCC3)ccc2N2CCCC2)cc1	8.64
Cc1ccc(C(=O)C2=C(O)C(=O)N(c3ncccn3)C2c2ccc(Br)cc2)o1 (stereo not drawn)	12.7
COc1ccc(NC(=O)CSc2cccc3cccnc23)c(OC)c1	-2.28
CC(C)C1OC(c2cccc(NC(=O)c3cccs3)c2)OCC1(C)C (stereo not drawn)	13.5
COc1ccc(C)cc1S(=O)(=O)N(C)CC(=O)N1CCCCC1	7.86
O=C(COC(=O)c1cnccn1)Nc1ccc2c(c1)OCO2	8.05
O=S(=O)(c1cccs1)n1cccn1	3.88

SMILES	hERG current change (%, negative = inhibition) at 1uM [%]
COc1ccc(C(=O)OCC(=O)NC(=O)NCc2ccccc2)cc1[N+](=O)[O-]	12.9
CC(=O)N1c2ccc(S(=O)(=O)NCCC(=O)NCCc3ccc(C)cc3)cc2CC1C (stereo not drawn)	4.46
O=C(NCC1CCCCC1)c1cccc([N+](=O)[O-])c1	11.4
Cc1ccc(-c2cc(C(F)F)n3ncc(C(=O)N4CCN(c5cccc(C)c5C)CC4)c3n2)cc1	7.8
O=C(Nc1cnccn1)Nc1ccccc1Cl	4.72
CCN(CC)S(=O)(=O)c1ccc(C)c(NC(=O)COC(=O)[C@@H]2CCCN2C(=O)c2cccs2)c1	7.15
OCC1(Cc2ccccc2C(F)(F)F)CCN(Cc2cccc3cnccc23)CC1	4.24
Cc1nnc(NC(=O)c2oc3c(ccc4ccccc43)c2C)s1	16.7
CCOC(=O)Cc1csc(NC(=O)Nc2ccc(F)cc2)n1	14
CCC1(c2ccccc2)NC(=O)N(CC(=O)Nc2cc(S(=O)(=O)N3CCOCC3)ccc2OC(C)C)C1=O (stereo not drawn)	4.54
Cn1c(-c2c(N)n(-c3ccccc3)c3nc4ccccc4nc23)nc2ccccc21	8.79
C/C(=N\NC(=O)C1CC1)c1ccc(NC(=O)c2ccc(Br)o2)cc1	15.5
NC(=O)C(CC(=O)O)NC(=O)[C@@H]1CCOc2c(I)cc([N+](=O)[O-])cc2C(=O)N[C@@H](CO)C(=O)N[C@@H](Cc2ccc(O)cc2)C(=O)N1 (stereo partly drawn) (SY[hSer(Ph(2-I,4-NO2,6-CO))][ξD]-NH2; lactam N-3)	-1.41
CS(=O)(=O)N(Cc1ccc(Cl)cc1)c1ccc(C(=O)NCCC2=CCCCC2)cc1	-3.85
COc1ccccc1NS(=O)(=O)N(C)C	11.9
CCNC(=S)Nc1cccc(F)c1C	12
CCN(c1ccc(Cl)cc1)S(=O)(=O)c1nnc(NC(=O)C(C)C)s1	9.39
Cc1cc(Cl)ccc1C(=O)C1CCCN(C(=O)c2cccc(N3CCCC3=O)c2)C1 (stereo not drawn)	3.1
Cc1ccc(S(C)(=O)=NC(=O)NC(=O)c2c(Cl)cccc2Cl)cc1 (stereo not drawn)	7.69
COC(=O)C1=C(C)NC(C)=C(C(=O)OC)C1c1ccc(NC(C)=O)cc1	18.5
CC(=O)Nc1nc(-c2ccc3c(c2)CCO3)cs1	9.73
CCN(CC)S(=O)(=O)c1ccc2c(c1)NC(=O)C1CCCN21 (stereo not drawn)	9.37

SMILES	hERG current change (%, negative = inhibition) at 1uM [%]
O=C(Cc1ccc(Br)cc1)Nc1ncc([N+](=O)[O-])s1	-1.37
O=C(NC1CCN(Cc2ccccc2)CC1)C1CCN(S(=O)(=O)c2cccc3nsnc23)CC1	8.24
Cc1c(NS(=O)(=O)c2ccc([N+](=O)[O-])cc2)c(=O)n(-c2ccccc2)n1C	18.6
Cc1cc2cc3c(cc2nc1SCC(=O)Nc1c(C)cccc1C)CCC3	12.9
Cc1ccc(SCC(=O)c2sc(-c3ccccc3)nc2C)cc1	6.38
CCOc1ccccc1N1CCN(C(=O)CNC(=O)c2sc3ccccc3c2Cl)CC1	15
O=C(c1ccc2ncsc2c1)N1CCN(c2ccccc2Cl)CC1	2.08
CCOc1ccc(C2C=C(c3ccc(C)cc3)Nc3nnnn32)cc1 (stereo not drawn)	-4.59
O=C(CN1C(=O)NC2(CCc3ccccc32)C1=O)NCc1ccccc1Cl (stereo not drawn)	41.3
CC(C)(C)c1ccc(OC(=O)N2CCCCC2)cc1	13
Cc1ccc2oc(=O)n(Cc3ccc(F)cc3)c2c1	12.3
Cn1nc(/C=C/c2ccccc2)ccc1=O	10.5
O=C(Oc1ccc(-c2nnco2)cc1)C1CCN(C(=O)c2ccc(F)cc2)CC1	11.4
Cc1ccc(C(=O)Nc2ccccc2C(=O)O)cc1S(=O)(=O)Nc1ccc(Br)cc1	15.1
O=C(N/N=C/c1ccccc1Br)C1CC1	30.8
Cc1cc(F)ccc1S(=O)(=O)Nc1ncnc2sccc12	10.9
Cc1cc(C(=O)Nc2ccc3c(c2)OCCO3)c(C)o1	9.92
Cc1ccc(N2CC(NS(=O)(=O)c3cccnc3)CC2=O)cc1 (stereo not drawn)	3.82
CCCCCN(C(=O)CCC(=O)OCCOc1cccc(Cl)c1)c1c(N)n(CCCC)c(=O)[nH]c1=O	10.9
N#Cc1ccc(NC(=O)COC(=O)CCc2nc3ccccc3c(=O)[nH]2)cc1	10.4
O=C(c1ccc([N+](=O)[O-])o1)N1CCc2ccccc21	16.4
Cc1nc(CC(=O)NNS(=O)(=O)c2ccc3ccccc3c2)cs1	10.8

SMILES	hERG current change (%, negative = inhibition) at 1uM [%]
CC(C)(C)C(=O)Nc1ccccc1N1CCN(C(=O)c2ccc(Cl)cc2)CC1	-2.76
CCOc1ccc2nc(NC(=O)CSc3nnc(-c4ccncc4)n3CC3CCCO3)sc2c1 (stereo not drawn)	6.31
Cc1nc2sccn2c(=O)c1S(=O)(=O)NC(C)c1ccccc1 (stereo not drawn)	14
COc1ccccc1N1CCN(Cc2nc3ccccc3[nH]2)CC1	18.3
N#Cc1ccc(COC(=O)c2ccc(N3CCCC3)c([N+](=O)[O-])c2)cc1	2
Fc1ccccc1Nc1nc(N2CCOCC2)nc(N2CCOCC2)n1	16.8
C[C@H](NC(=O)OCc1ccccc1)c1nnc([C@H](Cc2ccccc2)NC(=O)OC(C)(C)C)o1	1.94
O=C(CCC(=O)c1cccs1)NNC(=O)c1cccc(Cl)c1	-3.06
CC(C)NC(=O)Cn1cc(S(=O)(=O)N2CCCC2)c(S(=O)(=O)N2CCCC2)c1	11.8
O=C(CN1CCC(NC(=O)Nc2ccccc2)CC1)Nc1cccc([N+](=O)[O-])c1	-0.226
CCCCC(=O)Nc1nc(C)c(C(C)=O)s1	13.6
COc1ccc(N/N=C(/C)c2cnnc(-c3ccccc3)n2)cc1	7.77
O=c1[nH]c(/C(Cl)=C/c2cc(Cl)ccc2O)nc2cc(Cl)ccc12	8.93
CCC1Oc2ccc(C)cc2N(CC(=O)N(Cc2cccnc2)Cc2ccc(C)o2)C1=O (stereo not drawn)	-5.91
O=C(CSCc1cnn(-c2ccccc2)c1-n1cccc1)NCC1CCCO1 (stereo not drawn)	10.9
Cc1cc(NC(=O)CSc2nc3ccsc3c(=O)n2NC(=O)c2ccccc2)no1	4.46
CC(=O)N1CCN(C(=O)CCNS(=O)(=O)c2ccccc2)CC1	9.56
Cc1ccc(C(=O)N(CC(=O)NC2CCCCC2)c2ccccc2C)s1	1.68
O=P(Nc1cccc(Cl)c1)(Oc1ccccc1)Oc1ccccc1	3.58
COc1ccc(Nc2nc3c(C)cccc3cc2C#N)cc1	9.13
CC(C)(C)Nc1c(N)c(=O)oc2ccccc12	3.48
